Data on 6 molecules can be found in PMC12136788.

The chains are these.
T1: UNK ZnF1-3 (human, UniProt Q9C0B0 31-174)
T1 sequence: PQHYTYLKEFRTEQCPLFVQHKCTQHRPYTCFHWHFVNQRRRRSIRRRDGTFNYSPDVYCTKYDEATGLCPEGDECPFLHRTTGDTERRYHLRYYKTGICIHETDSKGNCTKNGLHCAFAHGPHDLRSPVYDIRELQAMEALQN

B1: 96689355_96689475_272_5pUTR_ENSMUSG00000038615_ENSMUST00000081775|mouse|control|control (ssRNA)
RNA: GGGAGUUCUACAGUCCGACGAUCUCUAUGGAGAUCCACUGCAGGCUGCUCACACCAACAGCUGAUGGAGUCUUUCUUUCCUCCUUUUUUUUUUCCCCCCCUUCUCCUUCCUAAGGUUUAUUUUCUUUGGCUGGAGCUACAGGUCAACAGAGGAUUGAGCAUCA
B2: chr14:78183846:78183847:+_ENSG00000119705_ENST00000557342|hu_hu|hu_hu_hu_mus_False|98_98 (ssRNA)
RNA: GGGAGUUCUACAGUCCGACGAUCUCUCAGAAAUCUUUCUUUCUUUUAUGUUUGAGCUCCGUGCAAAGCCUUUGCUCUUUGAGCUUGAACGUGGAUCUAUGGGAGGGAAAGCACUGUCAGAAAAGGUAAUUUUUUUUUUAAAGACAACAGAGGAUUGAGCAUCA
B3: chr11:115359427:115359428:-_ENSMUSG00000020737_ENSMUST00000021083|mus_hu|motif|central (ssRNA)
RNA: GGGAGUUCUACAGUCCGACGAUCUGCAGUUCACAAGCAUGGAGGAAACAGACAGAACGACAGCGUUCAGGACAGUCAGAGCGGACCCAAGACGAGGCUGGACUUGCCGCCAGGGGGAUUUCUUCUGGAUGGCACUGGGGCCGGCAACAGAGGAUUGAGCAUCA
B4: chr11:88578658:88578659:-_ENSMUSG00000069769_ENSMUST00000107909|perfect_dup|FALSE|FALSE (ssRNA)
RNA: GGGAGUUCUACAGUCCGACGAUCGGAGCGUUUCGUAGUGGGAUCUCUCAUGACCAUACAUUCUCUAAUUUCUCCAAAUUUGCUAAAAUAGUCUCUAAGGCUAUCUGGUGAGGUCUGCCAGCUCAGUCCACCGAUAAACAUUUUCAACAGAGGAUUGAGCAUCA
B5: chr4:140556289:140556290:+_ENSMUSG00000036622_ENSMUST00000037055|mus_mus|mus_mus_mus_hu_False|1_58 (ssRNA)
RNA: GGGAGUUCUACAGUCCGACGAUCGAUGGAGCUCACCAGGCCCCCUUUUGCCGUGCAGAACCCUGUGCGGGUCACCACUGCUAGCACGUGCGGUCCCACAUAGGCCCGGGCCUGCAAGAUGAGGGUCCCGCAGAAGAGGGUGUGCAACAGAGGAUUGAGCAUCA
B6: chr15:80390846:80390847:+_ENSG00000086666_ENST00000559775|hu_hu|motif|central (ssRNA)
RNA: GGGAGUUCUACAGUCCGACGAUCCUGUCCUGUAUCUUGAGACAGACAUUAGCUUUCUGCCUUCCCUAUUCUCAUAAGCAGCGGCUUAAAAGUUUUGAAUUUUAUGCAAGAAAACAUUUUAAAGCCUUCUGUGUUUUACUGCAGCAACAGAGGAUUGAGCAUCA

This is one part of the list.

For the assay, the target named is T1, UNK ZnF1-3. Put plainly: nsRBNS (natural sequence RNA bind-n-seq); RBNS binding buffer (assumed for nsRBNS): 25 mM Tris pH 7.5, 150 mM KCl, 3 mM MgCl2, 0.01% Triton X-100, 500 ug/ml BSA, 20 U/ml SUPERase-In, 4 C; UNK is unkempt and MSI1 is Musashi-1; names of the RNAs are library labels; protein concentration not given here; high values mean tight binding.
B1 displayed a binding signal of 0.573 enrichment R.

In turn, B2 showed a binding signal of 0.945 enrichment R.

In turn, B3 showed a binding signal of 1.45 enrichment R.

B4 came in with a binding signal of 0.931 enrichment R.

With B5, the binding signal stood at 0.568 enrichment R.

For the molecule B6, the binding signal is 0.687 enrichment R.
